Measured values published in PubChem BioAssay AID488969 (Vanderbilt High Throughput Screening Facility, 2010).
Whole data set: some 110,000 compounds, median “z-score” near -0.1, cut for the highest 2% near 2. The list shows a part of the results. Activity calls are given as the source filed them.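 Rule for the calls: active = z-score in the third read window above 3 or below -3; inactive = the rest.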

Target: Metabotropic glutamate receptor 8 (Rattus norvegicus) (UniProt P70579)
Assay: rat mGluR8 modulators via GIRK flux, primary screen, cell-based, thallium flux, HTS (AID 488969)
Conditions: HEK293 rat mGluR8, GIRK (G protein-gated inwardly rectifying potassium channel) thallium flux, FluoZin2; at 10 µM; stronger effect = higher value; submaximal glutamate (EC20) added with thallium

Sequence of UniProt P70579 (P70579 whole entry, looked up): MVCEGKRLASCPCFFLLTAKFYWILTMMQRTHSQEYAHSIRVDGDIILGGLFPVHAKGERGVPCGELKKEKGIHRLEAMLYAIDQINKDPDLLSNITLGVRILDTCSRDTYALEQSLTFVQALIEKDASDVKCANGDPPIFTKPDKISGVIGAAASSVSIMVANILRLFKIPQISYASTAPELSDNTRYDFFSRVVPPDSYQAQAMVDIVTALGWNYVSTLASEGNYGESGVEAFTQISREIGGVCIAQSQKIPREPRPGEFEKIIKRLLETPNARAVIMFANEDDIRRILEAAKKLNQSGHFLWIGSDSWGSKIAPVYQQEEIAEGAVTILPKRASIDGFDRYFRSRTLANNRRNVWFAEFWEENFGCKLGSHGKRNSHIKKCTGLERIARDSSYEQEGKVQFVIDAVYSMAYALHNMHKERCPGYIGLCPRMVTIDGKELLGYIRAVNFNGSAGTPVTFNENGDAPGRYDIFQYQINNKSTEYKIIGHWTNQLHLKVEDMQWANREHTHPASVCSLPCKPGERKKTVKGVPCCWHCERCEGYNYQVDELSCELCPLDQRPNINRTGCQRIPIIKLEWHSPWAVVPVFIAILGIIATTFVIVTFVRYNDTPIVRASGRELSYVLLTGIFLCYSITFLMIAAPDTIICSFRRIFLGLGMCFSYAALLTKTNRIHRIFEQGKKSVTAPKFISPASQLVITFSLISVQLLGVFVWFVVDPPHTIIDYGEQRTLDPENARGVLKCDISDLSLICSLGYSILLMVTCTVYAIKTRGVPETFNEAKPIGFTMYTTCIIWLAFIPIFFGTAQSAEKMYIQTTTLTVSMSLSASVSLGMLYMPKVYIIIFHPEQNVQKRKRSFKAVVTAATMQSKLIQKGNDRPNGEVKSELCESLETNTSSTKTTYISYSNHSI

First: COc1ccc(N2C(=O)CCC(C(=O)NCc3cccnc3)C2c2ccc(OC)c(OC)c2)cc1 (centres undefined)
Second: COc1ccc(CCNC(=O)c2ccc(CNS(=O)(=O)c3ccc(C(C)(C)C)cc3)cc2)cc1OC
The z-score of the first is higher: -0.0846 for the first, -0.178 for the second.

Going from `CCOC(=O)C1=C(C)NC(C)=C(C(=O)OCC)C1c1cccs1` to `CCOC(=O)C1=C(C)N=C2SC(C)C(=O)N2C1c1ccc(OC(C)=O)c(OCC)c1` (centres undefined), the z-score falls from -0.253 to -0.314.

Going from `CC12CCC(C(=O)O)(c3nc(C#N)c(C#N)nc31)C2(C)C` (centres undefined) to `CC1(C)CC(=O)c2c(O)cc(O)cc2O1`, the z-score falls from 0.701 to -0.161.

Going from `O=C(COC(=O)c1cc(S(=O)(=O)N2CCOCC2)ccc1O)NCCc1ccccc1` to `COCCCn1c(-c2ccc(S(=O)(=O)N3CCOCC3)cc2)csc1=Nc1ccccc1`, the z-score rises from -0.0466 to 0.966.

First: CCC(c1nnnn1CCOC)N1CCN(Cc2ccccc2)CC1 (centres undefined)
Second: Cc1nc(N2CCN(Cc3ccccc3)CC2)[nH]c(=O)c1C
The z-score of the first is higher: -0.338 for the first, -0.342 for the second.

Compared with `CCn1c(NCc2ccc3c(c2)OCO3)nc2ccccc21`, `CCCc1nc2ccccc2c(C(=O)OC(C)C(=O)NCc2ccc3c(c2)OCO3)c1CC` (centres undefined) is lower in z-score: -0.0327 for the first, -0.72 for the second.

Going from `O=c1c(-c2ccco2)[n+]([O-])c2ccccc2n1OCc1ccccn1` to `CC(C)CCOc1ccc(-c2c(=O)n(OCc3ccc([N+](=O)[O-])cc3)c3ccccc3[n+]2[O-])cc1`, the z-score falls from -0.153 to -0.238.

Compared with `CC1CCN(C(C)C(=O)Nc2ccccc2-c2ccccc2)CC1` (centres undefined), `CC1CC1C(=O)Nc1ccc(-c2ccccc2)cc1` (centres undefined) is higher in z-score: -0.229 for the first, 0.701 for the second.

First: c1ccc2c(-n3cnnn3)cccc2c1
Second: COc1cccc(/C=N/n2c(CO)nc3ccccc32)c1OC
The z-score of the first is higher: -0.00649 for the first, -0.36 for the second.

Going from `CN(Cc1ccccc1)S(=O)(=O)c1ccc2c(c1)n(C)c(=O)n2C` to `Cn1c(C2CC(=O)N(Cc3ccccc3)C2)nc2ccccc21` (centres undefined), the z-score rises from -0.0711 to 0.114.

Going from `O=C(COc1ccc(Br)cc1)N1CCN(c2ccc([N+](=O)[O-])c(N3CCCCC3)c2)CC1` to `O=C(CCCN1C(=O)c2cccc3cccc(c23)C1=O)N1CCN(c2ccccc2O)CC1`, the z-score falls from -0.631 to -0.81.

First: CCOc1ccc(-n2c(C)nc3cc(C(=O)NCc4ccc5c(c4)OCO5)ccc32)cc1
Second: Cc1ccc(C)c2c1cc(C)c1nnc(SCC(=O)NCc3ccc4c(c3)OCO4)n12
The z-score of the first is lower: -1.2 for the first, -0.918 for the second.

First: CCC(C)n1c(SCC(=O)NCc2ccco2)nnc1-c1cccc(S(=O)(=O)N2CCOCC2)c1 (centres undefined)
Second: Cc1ccc(N(Cc2ccco2)C(=O)c2cccc(S(=O)(=O)N(C)C)c2)cc1
The z-score of the first is lower: -0.0916 for the first, -0.0289 for the second.

Going from `O=C1N/C(=C/c2ccc(N3CCOCC3)o2)C(=O)N1c1ccccc1` to `O=C1NN(c2ccccc2)C(=O)/C1=C/c1ccc(Sc2cccc3ccccc23)o1`, the z-score rises from -0.755 to -0.0479.

Compared with `Cc1cc(C)c(S(C)(=O)=O)c(Oc2ccc(F)cc2)n1`, `Cc1noc2ncnc(Oc3ccc4ccccc4c3)c12` is higher in z-score: -0.494 for the first, -0.35 for the second.

First: Cc1cc2occ(CC(=O)Nc3nnc(C4CC4)s3)c2cc1C
Second: Cc1ccc2c(CC(=O)OC(C)C(=O)Nc3ncc(Cl)cc3Cl)coc2c1 (centres undefined)
The z-score of the first is higher: -0.147 for the first, -0.356 for the second.

Going from `COc1ccc(CNC(=O)c2cc3c(s2)CS(=O)C3)cc1` (centres undefined) to `COc1ccc(NC(=O)COC(=O)c2c3c(nc4ccccc24)CCCC3)cc1`, the z-score falls from -0.674 to -0.731.

Compared with `CCCCCCc1cc2cc(C(=O)Nc3ccccc3)c(=O)oc2cc1O`, `Cc1cc(C)c[n+](CC(=O)c2cc3ccccc3oc2=O)c1` is higher in z-score: -0.142 for the first, 0.468 for the second.

Going from `O=C1Nc2ccc(F)cc2C12Nc1ccccc1-c1nnc(SCc3ccccc3)nc1O2` (centres undefined) to `Cc1nn2c(COc3ccc(NC(=O)c4ccccc4)cc3)nnc2c2ccccc12`, the z-score falls from -0.338 to -0.386.

Going from `COc1ccc(NC(=O)CCCn2c(=S)[nH]c3ccccc3c2=O)cc1` to `CCn1c(CNc2ccc(F)cc2)nnc1SCC(=O)Nc1ccc(OC)cc1`, the z-score rises from -0.514 to -0.293.

Going from `CC1CN(Cc2nc3c(c(=O)n(C)c(=O)n3C)n2Cc2cccc(Cl)c2)CC(C)O1` (centres undefined) to `Cn1c(=O)c2c(nc(SCC(=O)c3cccs3)n2Cc2ccc(F)cc2)n(C)c1=O`, the z-score falls from 0.889 to -0.767.

Going from `O=C(CSCSCC(=O)Nc1ccc2c(c1)OCO2)Nc1ccc2c(c1)OCO2` to `CCC(=O)Nc1ccc(NC(=O)CN2CCCC(C)C2)c(Cl)c1` (centres undefined), the z-score rises from -0.542 to -0.146.

First: COCn1c(COc2ccccc2)nc2ccccc21
Second: C=C(C)Cn1c(-c2ccc(OC)cc2)nc2ccccc21
The z-score of the first is higher: -0.0471 for the first, -1.35 for the second.

First: COc1ccc(OCCOC(=O)Nc2ccccc2)cc1
Second: CS(=O)(=O)N1CCC(C(=O)Nc2ccc(Oc3ccccc3)cc2)CC1
The z-score of the first is lower: -1.63 for the first, -0.148 for the second.

First: Cc1ccc(NC(=S)NNC(=O)c2ccco2)cc1
Second: COc1cc(C(=O)NC(=S)Nc2ccc([N+](=O)[O-])cc2)cc(OC)c1OC
The z-score of the first is lower: 0.217 for the first, 1.31 for the second.

First: CC(=O)NC(C)C(=O)OCC(=O)c1ccc(Cl)s1 (centres undefined)
Second: COC(=O)Cn1c(=NC(=O)C(C)C)sc2c(C)cc(C)cc21
The z-score of the first is higher: 0.437 for the first, -0.633 for the second.

First: Cc1nnc(N(C)C(=O)c2ccccn2)s1
Second: COc1cc(C(=O)NCc2ccccn2)ccc1OCc1c(C)noc1C
The z-score of the first is lower: -0.146 for the first, -0.106 for the second.

Compared with `O=C(CN1CCN(Cc2ccc(F)cc2)C1=O)NCc1cccs1`, `CCc1ccc(NC(=S)N(CCCN2CCN(C)CC2)Cc2cccs2)cc1` is lower in z-score: 0.569 for the first, -0.882 for the second.

Compared with `O=C(Nc1c(C(=O)N2CCCCC2)cnn1-c1ccccc1)c1ccccc1`, `O=C(CCc1ccccc1)N1CCN(c2ccccn2)CC1` is lower in z-score: -0.132 for the first, -0.254 for the second.

Compared with `Cc1c(C(=O)OCC(=O)N2CC(=O)Nc3ccccc32)oc2ccccc12`, `CCOC(=O)Cn1nc(Cc2ccccc2)c2ccccc2c1=O` is lower in z-score: 0.186 for the first, -0.513 for the second.

Compared with `Cn1c(=O)n(C)c(=O)n(CC(=O)N2CCCCC2)c1=O`, `Cn1c(=O)c2c(nc(N3CCOCC3)n2CCCNC2=NCCCCC2)n(C)c1=O` is lower in z-score: 0.305 for the first, 0.0472 for the second.

First: C/C(=N\NC(=O)CNC(=O)C(c1ccccc1)c1ccccc1)c1ccc(C)cc1
Second: Cc1ccc(SC(c2ccccc2)C(Cn2cncn2)C(=O)c2ccccc2)cc1 (centres undefined)
The z-score of the first is lower: -0.536 for the first, -0.171 for the second.

First: CCOC(=O)N1CCN(CC(=O)N2c3ccccc3CC2C)CC1 (centres undefined)
Second: CCOC(=O)Cn1nnc(-c2ccc(SC)cc2)n1
The z-score of the first is lower: -0.746 for the first, -0.332 for the second.

First: CCOC(=O)N/N=C1\CC(C)CC(C)(C)C1 (centres undefined)
Second: CCOC(=O)c1c(C)[nH]c(N=Nc2ccc(C)cc2)c1C
The z-score of the first is lower: -0.258 for the first, 0.218 for the second.

Going from `CCn1cc(CNC(=O)/C=C/c2ccc([N+](=O)[O-])cc2)cn1` to `CC(=O)/C=C/c1ccc2ccccc2n1`, the z-score rises from -0.0606 to 0.038.

Going from `Cc1ccc2c(Cl)c(C(=O)N/N=C/c3cccn3C)sc2c1` to `CCNC(=O)c1cc2c(=O)n3cccc(C)c3nc2n(Cc2ccc(C)cc2)c1=N`, the z-score rises from 0.122 to 0.832.

Compared with `O=C1CC(=C2c3ccccc3-c3ccccc32)C(=O)N1CCCCN1CCN(c2ccccc2)CC1`, `Cc1c(C(c2ccc([N+](=O)[O-])cc2)c2c(C)n(C)n(-c3ccccc3)c2=O)c(=O)n(-c2ccccc2)n1C` is lower in z-score: -0.0433 for the first, -0.329 for the second.

Going from `COc1ccc(CNc2nc3nc(C)c(Cl)c(C)n3n2)cc1OC` to `COc1cc(NC(=O)C/C(C)=N/NC(=O)Cc2ccccc2)c(OC)cc1Cl`, the z-score rises from -0.508 to 0.0355.

First: O=C1NCCCC1C(=O)N/N=C/c1cccc(O)c1 (centres undefined)
Second: COc1cc(/C=N/OCC(=O)NC2CCCCC2)ccc1OCc1ccccc1
The z-score of the first is higher: 0.229 for the first, -0.752 for the second.

First: C#CCOC(=O)c1ccc(-n2cncn2)nc1
Second: CCOc1c2ccc(C(=O)NCc3ccccc3OC)cc2nn1CC
The z-score of the first is lower: -0.0454 for the first, 0.131 for the second.

Compared with `CC1(C)CC(=O)/C(=C(\O)Cc2ccccc2)C(=NCCCCCC(=O)O)C1`, `O=C(NCCC1=CCCCC1)C(=O)NCc1ccccc1` is lower in z-score: 0.032 for the first, -0.143 for the second.

First: Cc1ccc(-n2nnnc2C(Cl)c2nnnn2-c2ccc(C)cc2)cc1
Second: Clc1nc(-c2ccccc2)cc(-c2ccc(Br)cc2)n1
The z-score of the first is lower: -0.616 for the first, -0.242 for the second.

Compared with `CCc1ccccc1NC(=O)CCC(=O)OCC(=O)c1ccc(-c2ccccc2)cc1`, `O=C(COC(=O)C1=COCCO1)Nc1cccc(Oc2ccccc2)c1` is lower in z-score: -0.163 for the first, -0.192 for the second.

Going from `O=S1(=O)CCC(NC(=S)Nc2ccc(Cl)cc2)C1` (centres undefined) to `O=C(Nc1ccc(S(=O)(=O)N2CCOCC2)cc1)C1CCCCC1`, the z-score rises from 0.0328 to 0.469.

Compared with `O=C(CCc1ccccc1)NCc1cccnc1`, `O=C1/C(=C/c2ccccc2O)SC(=S)N1Cc1cccnc1` is higher in z-score: -0.814 for the first, 0.442 for the second.

First: CCCS(=O)(=O)N1CCC(C(=O)N2CCOCC2)CC1
Second: Cc1ccc(N(C)C(=O)N2CCN(S(=O)(=O)c3c(C)cc(C)cc3C)CC2)cc1
The z-score of the first is higher: -0.364 for the first, -0.4 for the second.

First: O=S(=O)(/N=S1/CC=CCN1S(=O)(=O)c1ccccc1)c1ccccc1 (centres undefined)
Second: C=CCNC(=O)c1ccccc1NC(=O)c1ccc(Cl)c(S(=O)(=O)Nc2cccc(C)c2C)c1
The z-score of the first is higher: -0.0838 for the first, -0.277 for the second.

Going from `COc1ccc(N)c2c1OCCC2=O` to `COc1ccc(NC(=O)C2CCC(CNc3c(N4CCC(C)CC4)c(=O)c3=O)CC2)cc1OC` (centres undefined), the z-score falls from 0.265 to -0.262.

First: Cn1c(CCCCCN)nc2ccccc21
Second: CCOP(=O)(OCC)C(Nc1ccccn1)c1ccc(F)cc1 (centres undefined)
The z-score of the first is higher: -0.166 for the first, -0.18 for the second.

Going from `Cc1ccc(NC(=O)C(=O)NCc2ccc(/C=C(/C#N)C(=O)NCc3cccnc3)o2)cc1C` to `O=C(/C=C/c1ccccc1)NC(NC(=S)Nc1cccc(Cl)c1)C(Cl)(Cl)Cl` (centres undefined), the z-score rises from -0.169 to 1.36.

Going from `Cc1ccc2c(c1)c1c(n2CC(O)Cn2nc(C)c(Br)c2C)C(=O)CCC1` (centres undefined) to `CCOc1cc(C)ccc1OCc1nnc(SCC(=O)c2cccc([N+](=O)[O-])c2)n1C`, the z-score falls from -0.111 to -0.139.

Compared with `CCN(CC)S(=O)(=O)c1ccc(Oc2ccc(S(=O)(=O)N(CC)CC)cc2)cc1`, `COc1ccc(C2CC(c3ccco3)n3ncnc3N2)cc1` (centres undefined) is lower in z-score: 0.0506 for the first, 0.0305 for the second.

First: CC1(C(=O)Nc2nnc(C(C)(C)C)s2)Cc2ccccc2C(=O)O1 (centres undefined)
Second: CCc1[nH]nc2c1C(c1cccnc1)C(C#N)=C(N)O2 (centres undefined)
The z-score of the first is lower: -0.0542 for the first, 0.367 for the second.

Compared with `CCCc1cc(N2CCCC(C(=O)NCC)C2)n2ncnc2n1` (centres undefined), `COCCn1nnnc1CN1CCN2CCCC2C1` (centres undefined) is higher in z-score: -0.213 for the first, 0.0773 for the second.

In the case of `Cc1cccc2cc(/C=C3\N=C(c4ccccc4)OC3=O)c(N3CCOCC3)nc12`, the z-score is reported as active: -4.01.
